# The campaign covered roughly 310,000 compounds. About 18,000 (5.8%) were called active. This list was built around the results that the source calls inconclusive (neither active nor inactive); the mix of calls is not that of the screen. The call rests on the fitted dose curve; in most records, active means well fitted inhibition curve with a large enough effect; inconclusive means small, poorly fitted or top-dose-only effect, or another doubt; inactive means no such curve, though single readings can be large or run the other way. No potency is given beside an inconclusive call; the fits are too rough.
# Test: Primary qHTS for delayed death inhibitors of the malarial parasite plastid, 48 hour incubation
# Settings: P. falciparum luciferase growth in erythrocytes; series mostly up to 28.7 µM; activity change, negative = inhibition: at the top concentration
# How it was run: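 A one-generation exposure of luciferase-tagged malaria parasites in RPMI 1640/Albumax erythrocyte culture, 37 C and 5% CO2. Inhibition is inferred from decreased luminescence after adding detection reagent.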
# On the % scale 0 is the no-effect control and ±100 the full control effect; potency means the concentration at half of the fitted maximal effect; tags describe the fitted curve by direction and shape.
Structure (SMILES),Potency,"activity change, negative = inhibition"
CCOc1cc(/C=C(/C#N)c2nc3ccccc3[nH]2)ccc1Oc1ccc([N+](=O)[O-])cn1,"inconclusive [inhibitor, full curve]",–
Cc1ccsc1C(=O)N1CCCC(C(=O)c2cc(F)ccc2F)C1 (stereo not drawn),"inconclusive [inhibitor, full curve]",–
O=C(COC(=O)C1COc2ccccc2O1)Nc1cccc(Cl)c1 (stereo not drawn),–,inactive: -17%
COc1cc2nc(CN(C)Cc3nc4ccccc4c(=O)[nH]3)[nH]c(=O)c2cc1OC,"inconclusive [inhibitor, single point]",–
CCCCN1CC(=O)N2[C@H]3c4cc(OC)ccc4OC[C@@H]3[C@H](C(=O)OCC)[C@]2(C)C1=O,–,inactive: -20.8%
CCCCCN(C(=O)CN1CCC(Cc2ccccc2)CC1)c1c(N)n(CCCC)c(=O)[nH]c1=O,"inconclusive [inhibitor, partial curve, poor fit]",–
O=S(=O)(c1ccc(F)cc1)N1CCN(C(=S)NC2CCCC2)CC1,active: 7.38 µM,–
CC1=NN(c2ccccc2)C(=O)/C1=C\C=C\c1ccccc1,"inconclusive [inhibitor, partial curve]",–
COc1cccc(C(C(=O)NC2CCCCC2)N(C(=O)c2ccco2)c2ccc(-n3cnnn3)c(C)c2)c1 (stereo not drawn),active: 14.7 µM,–
COc1ccc(C)cc1N(C(=O)COc1ccccc1)c1nc2ccccc2s1,active: 10.4 µM,–
O=C(CCCN1C(=O)c2ccccc2C1=O)Nc1c2c(nc3c1CCC3)CCC2,"inconclusive [inhibitor, partial curve, poor fit]",–
COc1cccc(Nc2nc(N)nc(CCl)n2)c1,"inconclusive [inhibitor, partial curve]",–
Cc1cc(N)c(-n2cc3c(=O)n(C)c(=O)n(C)c3c2)cc1C,"inconclusive [inhibitor, single point]",–
CN1C(C(=O)NCc2cccc(C(F)(F)F)c2)CC2Cn3c(nc4cc(Cl)c(Cl)cc43)C21 (stereo not drawn),"inconclusive [inhibitor, partial curve, poor fit]",–
Cc1ccc(/C=N/NC(=S)N2CCOCC2)cc1,active: 2.33 µM,–
COc1ccc(C(C[N+](=O)[O-])c2c(-c3ccccc3)cc3ccccn23)cc1 (stereo not drawn),"inconclusive [inhibitor, partial curve, poor fit]",–
CC(=O)Nc1ccc(Nc2cc(C(C)C)nc3c(-c4ccccc4)c(C)nn23)cc1,"inconclusive [inhibitor, partial curve, poor fit]",–
O=C(O)c1ccc(Nc2ncc([N+](=O)[O-])cc2[N+](=O)[O-])cc1,–,inactive: 16%
CC(C)(C)N(Cc1ccccc1)C(=O)COC(=O)C1CCN(c2ccc(C(F)(F)F)cn2)CC1,active: 10.4 µM,–
Cc1ccc(/C=C/c2nnc(-c3ccccc3)o2)cc1,–,inactive: 126%
CC(NC(=O)Nc1ccc(Cl)cc1)C(c1cccs1)N1CCOCC1 (stereo not drawn),"inconclusive [inhibitor, partial curve]",–
COc1ccc(CCNC(=O)C(=O)NCC2OCCN2S(=O)(=O)c2ccc3c(c2)OCCO3)cc1OC (stereo not drawn),"inconclusive [inhibitor, partial curve]",–

Structure (SMILES),Potency,"activity change, negative = inhibition"
NC(=O)CSc1cn(Cc2ccc(F)cc2)c2ccccc12,"inconclusive [inhibitor, single point]",–
CN(C)C(=O)c1ccc(NC(=O)c2ccc(-c3ccc(Cl)cc3)o2)cc1,–,inactive: 3.9%
Cc1ccc2c(C(=O)CNc3nncs3)c(C)[nH]c2c1,"inconclusive [inhibitor, partial curve, poor fit]",–
[O-]/[N+](=C/c1ccc(F)cc1)c1ccccc1,"inconclusive [inhibitor, single point]",–
O=S(=O)(c1ccc(NC(=S)N/N=C/c2c3ccccc3cc3ccccc23)cc1)N1CCOCC1,active: 3.29 µM,–
CC1CCc2c(sc3ncn(CC(=O)N4CCCCC4)c(=O)c23)C1 (stereo not drawn),–,inactive: -1.19%
O=Cc1ccc(OC(=O)Cc2ccc(F)cc2)cc1,"inconclusive [inhibitor, single point]",–
CC(C)C(=O)NC(c1ccco1)c1c(O)ccc2ccccc12 (stereo not drawn),"inconclusive [inhibitor, partial curve]",–
CCn1c(=NC(=O)c2ccc(S(=O)(=O)N3CCOCC3)cc2)sc2cccc(OC)c21,"inconclusive [inhibitor, full curve]",–
COC(=O)C1=C(c2ccc(-c3ccccc3)c(F)c2)C[C@@H]2CC[C@H]1N2C(=O)N1CCCC1,active: 14.7 µM,–
O=C(Nc1cccc(S(=O)(=O)N2CCCCC2)c1)C1CCCC1,"inconclusive [inhibitor, single point]",–
Cc1c(N(C)S(=O)(=O)c2ccc(Cl)c(C(=O)N3CCC(C(N)=O)CC3)c2)c(=O)n(-c2ccccc2)n1C,–,inactive: 4.58%
Cc1cccc(N(CC(=O)N/N=C/c2ccccc2C(=O)O)S(C)(=O)=O)c1C,–,inactive: 2.36%
CN1CCN(C(=O)C2=C[C@H](c3ccc(C(F)(F)F)cc3)C[C@H](OCc3ccc(CO)cc3)O2)CC1,"inconclusive [inhibitor, single point]",–
CCc1ccc(NC(=O)CSc2nc3ccsc3c(=O)n2CCC(=O)O)cc1,–,inactive: 11.5%
O=C(CSc1ccc(-c2ccccn2)nn1)Nc1ccccc1,–,inactive: -22.1%
O=CNCC(=O)NC1CCCCCC1,"inconclusive [inhibitor, partial curve, poor fit]",–
O=C(O)c1cc(Cl)c(Cl)cc1C(=O)Nc1cccc2cccnc12,–,inactive: 17.7%
COc1ccc(-n2c(Cc3cccn3C)nnc2SCC(=O)Nc2ccc(C)cc2)cc1,"inconclusive [inhibitor, single point]",–
CCCc1cc(=O)[nH]c(SCC(=O)Nc2cc(S(=O)(=O)N3CCCCC3)ccc2C)n1,"inconclusive [inhibitor, single point]",–
COc1cccc(-n2c(/C=C/c3ccccn3)nc3ccccc3c2=O)c1,"inconclusive [inhibitor, single point]",–
